± gives the standard deviation of the averaged measurements. Whole data set: some 4,100 sequences, median “relative kcat/Km (krel) vs genomic leader AAAGAU” near 1.7, cut for the highest 2% near 6.5. The list shows a part of the results, in another mix than the full data.
Biological target: T1, E. coli RNase P holoenzyme (M1 P RNA + rnpA protein) (UniProt P0A7Y8)
T1 sequence: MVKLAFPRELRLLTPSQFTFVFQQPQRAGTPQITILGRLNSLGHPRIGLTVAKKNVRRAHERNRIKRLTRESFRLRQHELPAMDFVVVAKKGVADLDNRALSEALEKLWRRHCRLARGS
Assay: relative kcat/Km (krel) vs genomic leader AAAGAU (relative (reference leader = 1)); higher = faster RNase P cleavage
Protocol: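 HTS-Kin: a pool of ptRNA-Met (21C construct) with all 4096 combinations of 5' leader nucleotides N(-6) to N(-1) was processed in vitro by E. coli RNase P (P RNA + rnpA/C5 protein) under multiple-turnover conditions at 37 C, pH 8, 17.5 mM MgCl2. Residual substrate was Illumina-sequenced at several fractions reacted, and relative kcat/Km (krel) was computed by internal competition kinetics, calibrated to the genomic leader (AAAGAU = 1). The listed hexamer is the varied N(-6)..N(-1) leader (DNA letters), and it sits between a fixed 5' stem-loop flank (GCAUGCACGAAAGUGCGUGCUAUGAA) and the mature tRNA-Met starting GGCUACGUAGCUCAGUUGG. Two technical replicates are averaged.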

[1] = fraction of substrate reacted: ~9-10% (9.79% repeat 1, 9.1% repeat 2)
[2] = fraction of substrate reacted: ~26-29% (28.66% repeat 1, 26.4% repeat 2)
[3] = fraction of substrate reacted: ~13-16% (15.68% repeat 1, 13.17% repeat 2)

Row | Sequence | relative kcat/Km [1] | relative kcat/Km [2] | relative kcat/Km [3]
1 | AATCCC | 2.14 ± 1.8 | 1.33 ± 0.76 | 
2 | TTAGTA | 1.41 ± 0.75 | 2.24 ± 0.85 | 1.51 ± 0.63
3 | CACGCG |  | 2.17 ± 0.21 | 0.687 ± 0.39
4 | CCCGAG | 1.48 ± 0.82 | 3.16 ± 0.072 | 0.888 ± 0.25
5 | TTGTGA | 1.2 ± 0.026 | 2.36 ± 0.66 | 1.57 ± 0.66
6 | TCCTAT | 4.03 ± 0.47 | 9.38 ± 4.8 | 6.02 ± 0.85
7 | ACCGGA |  | 0.635 ± 0.44 | 
8 | CAAAGT |  | 1.45 ± 1.4 | 1.05 ± 0.97
9 | TATTTT | 2.99 ± 0.97 | 5.41 ± 2.6 | 3.75 ± 0.39
10 | CAGAAG |  | 1.88 ± 1 | 
11 | CCAATC | 1.21 ± 0.17 | 1.87 ± 0.68 | 
12 | TATCTT | 2.42 ± 0.64 | 4.34 ± 2.3 | 3.1 ± 0.32
13 | GGACTG |  | 1.1 ± 0.086 | 
14 | CTTTCG | 1.29 ± 1.1 | 1.5 ± 0.051 | 0.933 ± 0.53
15 | CAAAGC | 1.07 ± 0.26 | 1.94 ± 1.2 | 1.12 ± 1.1
16 | GTTTTG |  | 1.74 ± 0.18 | 0.351 ± 0.17
17 | GCACGC |  | 1.29 ± 1.2 | 
18 | CACGTG |  | 1.163 ± 0.0097 | 
19 | ACCTAC | 3.44 ± 1.2 | 5.77 ± 2.1 | 4.53 ± 0.77
20 | CATGGG |  | 0.554 ± 0.53 | 
21 | ATTTGA | 3.01 ± 0.59 | 5.74 ± 2.1 | 4.02 ± 0.65
22 | ATGGCA |  | 1.01 ± 0.3 | 1.34 ± 1.2

Row | Sequence | relative kcat/Km [1] | relative kcat/Km [2] | relative kcat/Km [3]
23 | TACACC | 2.91 ± 0.42 | 5.78 ± 2.5 | 4.39 ± 1.3
24 | CCACGA | 2.55 ± 1.9 | 2.52 ± 0.18 | 1.62 ± 0.19
25 | GGGTTC | 0.445 ± 0.035 | 0.82 ± 0.16 | 0.916 ± 0.37
26 | CCATCT | 2.12 ± 1.5 | 2.64 ± 0.42 | 1.53 ± 1.1
27 | ATCCGT |  | 2.3 ± 2.1 | 
28 | GGCTCC | 2.56 ± 0.54 | 2.25 ± 0.7 | 1.96 ± 0.23
29 | TCGGTG | 0.643 ± 0.43 | 0.367 ± 0.27 | 
30 | GTTTTC | 2.55 ± 1.7 | 3.41 ± 0.9 | 2.53 ± 0.4
31 | TAAATT | 1.84 ± 0.54 | 2.61 ± 1.3 | 2.08 ± 0.067
32 | CTCCCC | 2.43 ± 0.053 | 4.73 ± 2.2 | 3.34 ± 1
33 | ACGCAT | 1.58 ± 0.85 | 3.39 ± 1.3 | 2.23 ± 0.052
34 | CACATA | 3.54 ± 0.72 | 5.34 ± 2.4 | 4.2 ± 0.97
35 | GTCTGG |  | 0.916 ± 0.067 | 0.567 ± 0.54
36 | CGGGGT |  | 1.32 ± 0.86 | 
37 | CCTAAA | 2.53 ± 1.5 | 3.14 ± 0.82 | 2.31 ± 0.051
38 | GTGTGC | 0.646 ± 0.36 | 1.05 ± 0.025 | 0.941 ± 0.17
39 | ATAATT | 1.81 ± 0.87 | 2.94 ± 1.4 | 2.21 ± 0.13
40 | AAATCG |  | 1.1 ± 0.071 | 
41 | CGTATG |  | 1.89 ± 0.14 | 
42 | GGCAGA | 2.2 ± 0.83 | 4.78 ± 1.9 | 2.88 ± 0.28
43 | AATACC | 1.49 ± 0.43 | 1.56 ± 0.25 | 1.431 ± 0.0097
44 | GGCCAC | 0.682 ± 0.091 | 2.65 ± 0.59 | 1.39 ± 0.35

Row | Sequence | relative kcat/Km [1] | relative kcat/Km [2] | relative kcat/Km [3]
45 | TCAAGC | 2.38 ± 0.69 | 2.9 ± 0.75 | 2.23 ± 0.16
46 | GTACGC | 2 ± 0.098 | 3.72 ± 1.3 | 2.7 ± 0.46
47 | ATAGTC | 1.61 ± 0.89 | 1.68 ± 0.75 | 1.42 ± 1
48 | TGAGTC | 0.583 ± 0.29 | 0.524 ± 0.49 | 1.03 ± 0.4
49 | GAGTAG | 1.04 ± 0.028 | 2.77 ± 1.1 | 1.45 ± 0.37
50 | TATCAT | 4.22 ± 1.9 |  | 5.02 ± 0.57
51 | CACGTT | 1.21 ± 0.087 | 2.27 ± 1.1 | 1.81 ± 0.32
52 | TTCTCC | 5.23 ± 2.1 | 8.25 ± 3 | 6.12 ± 0.67
53 | TTCCAG | 2.51 ± 1.5 | 5.49 ± 1.9 | 3.27 ± 0.64
54 | AGGTGA | 0.639 ± 0.4 | 0.743 ± 0.43 | 0.503 ± 0.19
55 | TGAGCT |  | 1.11 ± 0.47 | 0.836 ± 0.54
56 | TTGTCA | 2.03 ± 0.66 | 3.04 ± 0.6 | 2.26 ± 0.099
57 | CAAACT | 1.58 ± 0.47 | 1.31 ± 0.11 | 1.26 ± 0.27
58 | AATGAG |  | 0.677 ± 0.58 | 
59 | AGCTTA | 2.46 ± 0.35 | 3.91 ± 1.3 | 2.83 ± 0.28
60 | CTCTTT | 3.59 ± 0.8 |  | 4.98 ± 1.2
61 | ACACAG |  | 1.91 ± 0.12 | 
62 | AACAGG | 1.44 ± 0.93 | 1.33 ± 0.069 | 1.06 ± 0.89
63 | CACGCC | 3.91 ± 1.4 | 6.13 ± 2.1 | 4.47 ± 1
64 | CAACTT | 1.49 ± 0.5 | 1.88 ± 0.8 | 1.66 ± 0.94
65 | AGATTA | 2.28 ± 1.7 | 3.21 ± 0.83 | 2.49 ± 0.2
66 | GTGAGA | 0.981 ± 0.28 | 1.61 ± 0.43 | 1.29 ± 0.24

Row | Sequence | relative kcat/Km [1] | relative kcat/Km [2] | relative kcat/Km [3]
67 | AGAGTA |  | 0.77 ± 0.33 | 
68 | CACAAG | 1.66 ± 0.94 | 3.72 ± 0.99 | 1.78 ± 0.81
69 | AAGTAC | 3.18 ± 1.6 | 4.86 ± 1.7 | 3.53 ± 0.57
70 | TAATAG | 2.22 ± 1.8 | 3.58 ± 0.73 | 2.12 ± 0.069
71 | TAGTCC | 1.72 ± 0.61 | 3.49 ± 1.5 | 3.25 ± 0.096
72 | CTGAAA | 1.89 ± 0.12 | 2.95 ± 0.41 | 2.26 ± 0.44
73 | GCACGT |  | 0.727 ± 0.1 | 
74 | TAAAAC | 2.14 ± 0.63 | 3.24 ± 1.3 | 2.65 ± 0.32
75 | GAAAAC | 1.3 ± 0.74 | 1.79 ± 0.24 | 1.5 ± 0.21
76 | CCCGGC | 0.71 ± 0.032 | 1.01 ± 0.42 | 1.23 ± 0.72
77 | GTAATG |  | 2.35 ± 0.49 | 1.21 ± 0.55
78 | TGCGGG | 0.417 ± 0.073 |  | 0.776 ± 0.59
79 | TTCTTT | 4.38 ± 0.77 | 8.65 ± 4 | 6.36 ± 1.2
80 | AATTGG |  | 0.683 ± 0.13 | 
81 | AGTATG |  | 1.8 ± 0.41 | 0.463 ± 0.43
82 | TTGCGA | 1.1 ± 0.36 | 1.91 ± 0.14 | 1.53 ± 0.44
83 | ATTTCG |  | 1.54 ± 0.3 | 0.774 ± 0.088
84 | ACTTTC | 2.54 ± 1.1 | 2.64 ± 0.73 | 2 ± 0.66
85 | TGCTCA | 1.76 ± 0.62 | 2.92 ± 1.3 | 2.48 ± 0.64
86 | CTCGGT |  | 1.88 ± 0.47 | 
87 | ACTCTT | 2.38 ± 0.7 | 2.51 ± 0.61 | 2.15 ± 0.55
88 | CGTTTT | 2.83 ± 0.53 | 5.18 ± 2.1 | 3.46 ± 0.96

Row | Sequence | relative kcat/Km [1] | relative kcat/Km [2] | relative kcat/Km [3]
89 | AAGTGC | 1.56 ± 0.53 | 1.44 ± 0.55 | 1.45 ± 0.37
90 | AGCAGG |  | 0.91 ± 0.13 | 
91 | ACAGCT | 0.826 ± 0.092 | 0.873 ± 0.12 | 
92 | GTCACA | 3.73 ± 1.8 | 7.01 ± 2.5 | 4.78 ± 1.1
93 | GGTTTG |  | 0.405 ± 0.073 | 
94 | AATGTA | 1.68 ± 0.94 | 1.34 ± 0.42 | 0.976 ± 0.56
95 | CCAGGT |  | 1.05 ± 0.24 | 
96 | TCAACT |  | 1.07 ± 0.23 | 
97 | TGTCAA | 3.03 ± 1.6 | 5.75 ± 2.1 | 3.56 ± 0.18
98 | GTCATT | 4.45 ± 1.6 | 8.08 ± 4 | 5.21 ± 2
99 | ACAGGA |  | 1.04 ± 0.65 | 
100 | TGAATC | 1.86 ± 0.16 | 2.53 ± 0.78 | 1.84 ± 0.4
101 | CCAAGA | 1.04 ± 0.32 | 1.42 ± 0.48 | 
102 | GACTCG | 1.8 ± 1.4 | 3.21 ± 0.58 | 1.87 ± 0.13
103 | CAATGC | 2.39 ± 0.52 | 3.68 ± 1.3 | 2.18 ± 0.45
104 | TTGCCA |  | 1.11 ± 0.44 | 
105 | AGTGAA | 2.54 ± 0.25 | 3.35 ± 1.5 | 2.23 ± 0.96
106 | TCGCAG | 1.34 ± 0.53 | 2.16 ± 0.16 | 0.983 ± 0.69
107 | CGGTAT | 0.633 ± 0.21 | 1.32 ± 0.91 | 1.01 ± 0.72
108 | CAACCT | 1.37 ± 0.53 | 1.52 ± 0.24 | 1.17 ± 0.021

Source: the supplement of paper PMC9433436
